Assay results reported in PubChem BioAssay AID485364 (National Center for Advancing Translational Sciences (NCATS), 2010).
Out of some 360,000 compounds screened, about 11,000 (3.1%) were called active. The shares of active, inactive and inconclusive entries below differ from those in the screen. Calls follow the shape of the dose curve; as a rule, active = well fitted inhibition curve with a large enough effect; inconclusive = small, poorly fitted or top-dose-only effect; inactive = no such curve, though single readings can be large or run the other way. No potency is given beside an inconclusive call; the fits are too rough.

target: Schistosoma mansoni thioredoxin glutathione reductase (TGR) (UniProt Q962Y6); experiment: qHTS Assay for the Inhibitors of Schistosoma Mansoni Peroxiredoxins; details: purified TGR, DTNB reduction, TNB absorbance 405 nm; series mostly up to 114 µM; also: nearly all actives have a fitted effect of over 60% in size
Summary of the method: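 TGR 20 nM + NADPH 100 uM (dispensed conc.), cpd preinc 15 min RT; start with NADPH (500 uM addition) then DTNB (15 mM addition). Kinetic TNB absorbance, 405 nm filter. Four-parameter Hill fit across titration.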
Potency is read from the fitted curve at half-maximal effect; tags tell the direction and shape of the fitted curve.

SMILES | Potency
Cc1ccc2cc(C3CC(c4ccco4)=NN3S(C)(=O)=O)c(Cl)nc2c1 (centres undefined) | active: 11.2 µM
O=C1N[C@@H](Cc2ccccc2)C(=O)N2[C@H]1C[C@]1(Br)c3ccccc3N(S(=O)(=O)c3ccccc3)[C@H]21 | active: 22.4 µM
O=S(NCc1ccco1)C12CC3CC(CC(C3)C1)C2 (centres undefined) | active: 22.4 µM
COc1cc(/C=C(/C)[N+](=O)[O-])ccc1OCc1ccccc1Cl | inconclusive [inhibitor, full curve]
Cc1ccc(-n2cnnn2)cc1S(N)(=O)=O | inactive
FC(F)(F)c1cc(-c2ccco2)nc(NCc2ccco2)n1 | inconclusive [inhibitor, partial curve]
NC(=O)C1CCN(C(=O)c2ccc(Cl)c(S(=O)(=O)NCc3ccco3)c2)CC1 | inconclusive [inhibitor, partial curve]
O=C1c2cccc3c([N+](=O)[O-])ccc(c23)C(=O)N1CCc1ccccn1 | inconclusive [inhibitor, partial curve]
O=C(CN1CCOCC1)N/N=C/C=C/c1ccccc1 | inactive
Cc1ccc2c(-c3csc(N)n3)c[nH]c2c1 | inconclusive [inhibitor, full curve, poor fit]
CCOc1ccc(C2=C/C(=C/c3cccnc3)C(=O)O2)cc1 | inconclusive [inhibitor, partial curve]
Cc1onc(-c2ccccc2)c1C(=O)n1nnc2ccccc21 | active: 17.8 µM
O=C(c1ccccc1)N1c2nc(-c3ccco3)nn2C2(CCCCC2)[C@@H]2CCCC[C@@H]21 | inconclusive [inhibitor, full curve]
O=C(COC(=O)c1cncc(Br)c1)Nc1ccc(F)c(F)c1F | inactive
Cc1ccc2c(c1)c1cccc3c1n2CCN3CCC(N)=O | inactive
CCOC(=O)N1CCC(NS(=O)(=O)c2ccc(C)c(Cl)c2)CC1 | inactive
NC(=O)c1nsc(C(=O)N(c2ccccc2)C(C(=O)NCc2ccc(F)cc2)c2ccco2)c1N (centres undefined) | inconclusive [inhibitor, partial curve]
CC(=O)Nc1ccc(NC(=O)CS(=O)(=O)Cc2ccccc2)cc1 | inconclusive [inhibitor, full curve]
COc1cc(Cl)ccc1OCc1cc(C(=O)N(C)Cc2cccc3cnccc23)no1 | inconclusive [inhibitor, partial curve]
O=C(Oc1c(-c2ccccc2)c(=O)n2c3c(cccc13)CC2)c1cccc([N+](=O)[O-])c1 | inconclusive [inhibitor, full curve]
COc1cc(/C=C(/C(=O)c2cccs2)c2nc3ccccc3[nH]2)ccc1O | inactive
O=C(NCc1cccc(Cl)c1)c1ccc(-c2csnn2)cc1 | inactive
CCCOc1ccc(CNC(=O)C(NS(=O)(=O)c2cccs2)C(C)C)cc1 (centres undefined) | inconclusive [inhibitor, single point]
COc1cccc(COC(=O)c2cc(=O)[nH]c3ccc(S(=O)(=O)N4CCOCC4)cc23)c1OC | inactive
O=C1c2ccccc2C(Nc2ccc(Cl)cc2)N1CCN1CCOCC1 (centres undefined) | inconclusive [inhibitor, single point]

SMILES | Potency
COc1cccc(/C=N/NC(=O)CCCc2ccc(OC)c(C)c2)c1 | inactive
CC1CN(C(NC(=O)C(C)(C)C)C(Cl)(Cl)Cl)CC(C)O1 (centres undefined) | active: 35.5 µM
CC1CCN(C(=O)CN2C(=O)NC3(CCC(C)CC3)C2=O)CC1 (centres undefined) | inactive
COc1ccc(NC(=O)/C(Cl)=C(/Cl)S(=O)(=O)Cc2ccc(C)cc2)cn1 | active: 2.51 µM
O=C1CC(N2CCC(c3nc4ccccc4o3)CC2)C(=O)N1Cc1cccs1 (centres undefined) | active: 50.1 µM
CCc1c(C)c2cc3c(c(C)c2oc1=O)OCN(CCc1ccccc1F)C3 | inconclusive [inhibitor, partial curve]
O=C(Nc1sc2c(c1C(=O)NCc1cccnc1)CCCC2)c1ccco1 | inconclusive [inhibitor, partial curve]
Cc1nn(-c2ccccc2)c2nc(C(Cl)(Cl)Cl)[nH]c(=O)c12 | active: 12.6 µM
O=[N+]([O-])c1ccc(/C=[N+](\[O-])CCO)o1 | inconclusive [inhibitor, partial curve, poor fit]
CCN(CC)c1nc2cc(OC)ccc2cc1C#N | active: 35.5 µM
Cc1ccc(NC(NC(=O)OCCn2c([N+](=O)[O-])cnc2C)C(Cl)(Cl)Cl)cc1 (centres undefined) | inactive
O=C(CN1CCOCCOCCOCCOCC1)Nc1ccccc1 | inactive
Cc1noc(/C=C/c2ccco2)c1S(=O)(=O)N1CCC(C(=O)N(C)Cc2ccccc2)CC1 | active: 12.6 µM
Cc1cc(C)c2c(N)c(C(=O)NCc3ccco3)sc2n1 | inconclusive [inhibitor, partial curve, poor fit]
Cc1ccc(S(=O)(=O)/N=C(\Sc2ccccc2)c2ccccc2)cc1 | active: 7.94 µM
O=C(N/C=C\c1ccccc1)NCc1ccc(Cl)cc1 | inconclusive [inhibitor, single point]
CCOC(=O)c1ccc(Nc2c(-c3ccc(O)c(OC)c3)nc3nc[nH]n23)cc1 | active: 31.6 µM
Cc1ccnc2nc(C(=O)Nc3nc4ccccc4s3)nn12 | inactive
CCOc1cc(/C=C2\CCCC(C(=O)C(F)(F)F)=C2O)ccc1O | inconclusive [inhibitor, partial curve]
CC1CCN(C(=O)C(Cc2ccccc2)n2cccc2)CC1 (centres undefined) | inconclusive [inhibitor, partial curve]
CC(=O)c1c(C)nc2nc(-c3ccccc3)nn2c1C | inactive
COC(=O)C1=C(CS(=O)(=O)c2cc(Cl)ccc2OC)NC(=O)NC1c1ccccc1 (centres undefined) | inactive
CC(=O)Oc1cc2c(C(=O)NCCN3CCOCC3)c(C)oc2c2ccccc12 | active: 25.1 µM
Cc1ccc(Nc2nc(-c3sc(NC(=O)c4ccco4)nc3C)cs2)cc1 | inconclusive [inhibitor, partial curve]
O=C(c1ccco1)N1CCN(Cc2nc3ccc([N+](=O)[O-])cc3c(=O)n2-c2ccccc2F)CC1 | inconclusive [inhibitor, partial curve]

SMILES | Potency
CCN(c1ccc2c(c1)OCO2)S(=O)(=O)c1cc(Br)cc2c1N(C(=O)C1CC1)CC2 | inconclusive [inhibitor, partial curve]
CCN1CCN(CCCNC(=O)c2cc3c(=O)n(C)c4ccccc4c3s2)CC1 | inactive
CCN(CC)C(=O)CSC1=N/C(=C/c2ccco2)C(=O)N1c1ccc(OC)c(Cl)c1 | inconclusive [inhibitor, partial curve]
COc1ccc2c(c1)C(C)CC(C)(C)N2C(=O)NC1CCCCC1 (centres undefined) | inconclusive [inhibitor, partial curve]
CCCCCCC(=O)N(O)C1CC(=O)N(c2ccc(F)cc2)C1=O (centres undefined) | active: 0.631 µM
NC(=O)c1ccc(N=Cc2c(O)n(Cc3ccco3)c(=O)[nH]c2=O)cc1 | active: 39.8 µM
Cc1ccc(N(C(=O)c2snc(C(N)=O)c2N)C(C(=O)NC2CCCC2)c2ccco2)cc1 (centres undefined) | active: 39.8 µM
CCOc1ccc(NC(=O)CCS(=O)(=O)c2ccc3c(c2)CCCN3C(C)=O)cc1 | inconclusive [inhibitor, full curve, poor fit]
CCN1C(=O)[C@H]2[C@@H](c3ccccc3)N3C(=O)N(c4cccc(F)c4)C(=O)[C@@]3(CC(C)C)[C@H]2C1=O | inactive
CC(=O)Nc1ccc(SC[C@H](c2ccccc2)N2CCN(CCc3ccccc3)CCC2=O)cc1 | active: 14.1 µM
Cc1cc([N+](=O)[O-])ccc1NC(=O)c1cccc(NC(=O)C(C)C)c1 | inactive
Cc1cc2oc(C(=O)Nc3c(C(=O)Nc4ccccc4)oc4ccccc34)cc(=O)c2cc1C | inactive
Cc1cccn2c(=O)c(C(=O)NCCCN3CCCCC3C)c(O)nc12 (centres undefined) | inconclusive [inhibitor, single point]
CCOc1ccc2c(c1)S/C(=C\c1cccs1)C(=O)N2 | inactive
CC(C)c1ccc(C2/C(=C(/O)c3ccc(F)cc3)C(=O)C(=O)N2CCCN2CCOCC2)cc1 (centres undefined) | inconclusive [inhibitor, partial curve]
COc1cc(-c2nnn(CC(=O)Nc3ccc(OC(F)(F)F)cc3)n2)cc(OC)c1OC | inactive
COc1ccc(N=C2NC(=O)/C(=C/c3ccco3)S2)cc1 | active: 31.6 µM
CCN(CCCNC(=O)c1cc2c(=O)n(C)c3ccccc3c2s1)Cc1ccccc1 | inactive
O=C(CC1C(=O)NCCN1Cc1cccc(F)c1)NCCCOc1cccnc1 (centres undefined) | inconclusive [inhibitor, partial curve]
CCOC(=O)c1c(C)n(C)c2ccc(O)c(CN(C)C)c12 | inconclusive [inhibitor, partial curve]
COCCC(=O)N1CCC(Oc2ccc(C(=O)N3CCC(N(C)C)C3)cc2)CC1 (centres undefined) | inconclusive [inhibitor, partial curve]
O=c1ccc2[n+]([O-])c3ccc(O)cc3oc-2c1 | active: 2.24 µM
CC1(C)CC(=O)C(C(c2cccc([N+](=O)[O-])c2)C2C(=O)CC(C)(C)CC2=O)C(=O)C1 | inconclusive [inhibitor, full curve]
CCOc1ccc(-n2nnc3c(=O)n(CC(=O)NCc4ccco4)cnc32)cc1 | inconclusive [inhibitor, partial curve]
